Test results as given in the supplement of paper PMC11417369.
± gives the standard deviation of the averaged measurements. The list shows a part of the results.

System: PfAP2-EXP AP2 domain (GST-tagged)
Assay: gcPBM binding intensity (ln(normalized median fluorescence intensity)); higher = stronger DNA binding
Outline: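 The binding buffer was 1× PBS containing 1% milk, 0.2 mg/ml BSA, 0.5% salmon testes DNA and 0.03% Triton X-100. In it, GST-tagged P. falciparum DNA-binding domains expressed in E. coli were applied for 1 h to an Agilent 4 × 180k array of primer-extended double-stranded 36-bp intergenic genomic probes plus negative controls. Binding intensity, read with Alexa488 anti-GST antibody and a 488 nm scan, is the highest Masliner-normalised natural-log median intensity across replicate spots of either probe orientation.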

Row | Sequence | gcPBM binding intensity (ln)
1 | TCATAAAAAGGAATCTTTAAGATATTTTATAAGCTC [XGTACX_negctrl_site18] | 8.06 ± 0.5
2 | ATGTGATAATTTAGGAGTACTGTCATAAGCATTTCT [XGTACX_site3091] | 8.52 ± 0.41
3 | TTATAAATTTTTAATAGTACATAAAATTAAAGGTAA [XGTACX_site760] | 8.66 ± 0.21
4 | AATAAATGTCTGTTAATGCACACGATATGTCTATAT [CACACA_site2351] | 8.51 ± 0.2
5 | AGTGCATAATATTTATGTACGTATCACATATATTTT [XGTACX_site5166] | 8.58 ± 0.085
6 | TTTCTTTATTTATAATAATTTTTTATTAAAAATAGA [CACACA_negctrl_site1610] | 8 ± 0.35
7 | ATGTATCGTAACAAATGTACAAGAGGATGTTTAGAC [XGTACX_site3355] | 9.05 ± 0.48
8 | GATATATTTTGTTATGTAGATGTTGGTAGGAATTTT [GTGCAC_negctrl_site485] | 8.61 ± 0.5
9 | GTATTTATATGATTAACACACATATGTGGATTAATA [CACACA_site1315] | 8.44 ± 0.33
10 | ATATATATATATATATGTACGTAAACAAAAATTTAT [XGTACX_site6780] | 10.1 ± 0.4
11 | TATTGATAAAAAATATGTACATATATACATATATAT [XGTACX_site3821] | 8.48 ± 0.23
12 | TATATAACTACAAGAACACACATATAAATATAAATA [CACACA_site7210] | 8.79 ± 0.32
13 | GTAATTAAGATATATACACACAAAGGCTATTAAATA [CACACA_site6604] | 8.47 ± 0.52
14 | TAATATTACATTTATTGTACTTTGTTTTTATTTTAT [XGTACX_site1605] | 8.51 ± 0.42
15 | AATTATACTCACGTTACACACACACTAGATATATAT [CACACA_site6133] | 8.83 ± 0.54
16 | TTTTTTTTTTTTTTTTGTACATATATATAAAAAATA [XGTACX_site2772] | 8.18 ± 0.51
17 | CCCACAATGGTTTATATACACACTGTTGCAAATTCT [CACACA_site3066] | 8.65 ± 0.47
18 | ATTGAAAAAATACAATGTACATAGTAATACAAAGAA [XGTACX_site4142] | 8.94 ± 0.37
19 | TGTTTCTAAGAATTTACACACAAAATATTTCTACAT [CACACA_site7846] | 8.42 ± 0.45

Row | Sequence | gcPBM binding intensity (ln)
20 | TAATACTTAATGAACACATGCACATATACATAGTAT [TGCATGCA_site496] | 8.66 ± 0.27
21 | TTAAAAATTAAAAGTAGTACATATAATATAAACATT [XGTACX_site424] | 8.41 ± 0.3
22 | AAAAAAAAAAATTGCACACAAAAAAAAAAAAAAAAA [CACACA_site2073] | 8.2 ± 0.43
23 | AGACAATTTTTTAGTACACACATATAGATATATAAA [CACACA_site6832] | 8.59 ± 0.28
24 | CTTAAATCCATAATATGTACTTAAAAAGAAAAAATA [XGTACX_site4765] | 8.34 ± 0.4
25 | ATAATTATACAAAAGCGTACACGATATAAATCTACG [XGTACX_site8115] | 8.61 ± 0.27
26 | ATATGAACATTAAAAAAGTAAGGTATTCTCCCCTCT [CACACA_negctrl_site1299] | 8.48 ± 0.3
27 | GTATTATAAAAAGGAAGTACATATATACATATTATA [XGTACX_site1271] | 8.6 ± 0.32
28 | TTATAAAAAAAAAAAAAAAAAAAAACCAATATAATA [CACACA_negctrl_site968] | 8.07 ± 0.52
29 | TTTATTCTAAAATATTAAAAATGATTTGTTTTTTCA [CACACA_negctrl_site1751] | 7.78 ± 0.43
30 | TTTTAAAATAAAAAAATAAAAAAAGGGGAAAAAAAA [CACACA_negctrl_site847] | 8.37 ± 0.35
31 | CATATCAAAAAAAAATGTACACGTATATACAATACA [XGTACX_site2660] | 8.56 ± 0.42
32 | TATAATATGTTTGATGGTACACGTAAACACCTTGCA [XGTACX_site1643] | 8.68 ± 0.3
33 | ATATACTTATATATTGCACACATCTAATATTTTGAA [CACACA_site3165] | 8.62 ± 0.23
34 | ATAACTAAATTATATTGTACAAAATAATTATATATT [XGTACX_site1188] | 8.35 ± 0.33
35 | ATACACGTTTTACAATGTACAGAAAGTATACATAAT [XGTACX_site4585] | 8.74 ± 0.46
36 | TTTAATCAACAAAATCTACACACTAATATGAAATAT [CACACA_site9250] | 8.32 ± 0.58
37 | TATTATATATATAAATGTACATATTATTTTTCTTTT [XGTACX_site8670] | 8.69 ± 0.28
38 | GTATTTTTTTTCTTTTGTACATATATATAAAGAATA [XGTACX_site4569] | 8.85 ± 0.41

Row | Sequence | gcPBM binding intensity (ln)
39 | AAGAATTTTCGATTTGCACACATTTGTAAAATAAAA [CACACA_site2354] | 8.22 ± 0.23
40 | AATTTAAAAAATAATTGTACAAAAAAAAAAAATCAG [XGTACX_site4576] | 8.94 ± 0.57
41 | GTTAATATTTTTGGGGGTACTTAAAAAAAAAAAAAA [XGTACX_site1477] | 9.35 ± 0.26
42 | TTACATACAATTGGTGTGCACATATATATATATATA | 10.3 ± 0.33
43 | CAAAAGGATAGGCACACACACACACCGATATATATA [CACACA_site8685] | 8.84 ± 0.38
44 | GAATATTAATTCAAGTGTACAAATATATATATAATT [XGTACX_site5103] | 8.62 ± 0.35
45 | ATAATATAAATATACACACACACATATATATATATA [CACACA_site2905] | 10 ± 0.29
46 | TAATAAGGAATTTATAGTACATATTCATATGTTTTA [XGTACX_site2331] | 8 ± 0.29
47 | ATAAAAATTTATATATGTACTTAATTTTTAATTTTT [XGTACX_site7482] | 8.38 ± 0.4
48 | TATGTTTTTGAATGAGTGCATTAAAATAAAACATTT | 8.72 ± 0.28
49 | TTCTTGTATATTCATAGTACATATAATGTCGTGTTA [XGTACX_site8991] | 8.72 ± 0.4
50 | AAATAAAGAAATGCAAGTACATACTAAACTAATCCA [XGTACX_site1209] | 8.61 ± 0.42
51 | ATATATATTATAATCTGTACATAAATATATAATAAA [XGTACX_site5425] | 8.39 ± 0.33
52 | TTGTTTTATACATAGTGTACATATAAAAATTTTTTT [XGTACX_site7549] | 8.65 ± 0.28
53 | TCTTAAATTATGATAAAATATAATAAATAAATAAAT [CACACA_negctrl_site1520] | 8.31 ± 0.34
54 | CAGATAAATAAACACACACACACATATATATATATA [CACACA_site9311] | 10.1 ± 0.26
55 | ATATATAAATATGAAACACACATTCTATTTAATTCG [CACACA_site1450] | 8.2 ± 0.42
56 | ATTTTCCCTAGAATATGTACACATAGTAAATATTAT [XGTACX_site7499] | 8.36 ± 0.36
57 | TATGTTTCTATATATACATGCAAGAAGAAATGTACT [TGCATGCA_site891] | 9 ± 0.37
